Source: US20160058880

Tests used:
NH2-Gly-Pro-Doxorubicin = tested on: T1, NH2-Gly-Pro-Doxorubicin
T1 sequence: GP

[1] = tested on: N-succinyl-beta-alanyl-L-leucyl-L-alanyl-L-leucyl-doxorubicin

## FAP (sequence not shown)
NH2-Gly-Pro-Doxorubicin
  conversion to Dox after 3 h incubation at 37° C. with purified FAP: 62% conversion to Dox after 3 h incubation at 37 °C
LGP-Dox
  hydrolysis by purified FAP: Neither CD26 nor FAP hydrolized either PhAc-ALGP-Dox, Suc-βALAL-Dox or LGP-Dox
PhAc-ALGP-doxorubicin
  hydrolysis by purified FAP: Neither CD26 nor FAP hydrolized either PhAc-ALGP-Dox, Suc-βALAL-Dox or LGP-Dox
[1]
  hydrolysis by purified FAP: Neither CD26 nor FAP hydrolized either PhAc-ALGP-Dox, Suc-βALAL-Dox or LGP-Dox
